Measured values from paper PMC12136788.
The other results are listed elsewhere or left out.

B1: 48277764_48277884_2105_CDS_ENSMUSG00000038143_ENSMUST00000110367|mouse|control|control (ssRNA)
RNA: GGGAGUUCUACAGUCCGACGAUCCACACCACCAGAGGCUGCAGGGCCCCCUCCUGGCCCUUUCGGUGACUCCUCCUUGUGCCCAACAGGUUCCCUGGAAGAAUGGGGGGUCUGCCUCUCAGAUGGAGACAGCUUUUUUACCCCCAACAGAGGAUUGAGCAUCA
B2: chr3:148802587:148802588:-_ENSG00000071794_ENST00000310053|hu_hu|FALSE|FALSE (ssRNA)
RNA: GGGAGUUCUACAGUCCGACGAUCUCCAACCACAUGACCUCUCAAACUUCCAAAUAAAACGGAAUCUACUUCUUCAUCACUAGUUAGAAAGUCAUCUGGAGGGAUAACAUCUUGGAAUUCAAAACGUGGAAAGAAAGUUGGAUACAACAGAGGAUUGAGCAUCA
B3: 25298252_25298454_4651_CDS_ENSMUSG00000026944_ENSMUST00000102919|mouse|control|control (ssRNA)
RNA: GGGAGUUCUACAGUCCGACGAUCGUUGGCAGGAGACUUGAGCACACAAGUGGCACCCACACCAGAGGGCAGCCGGAAUGUGCUCACCAGCUGCUGGGGGCUGGCAUCAGGUGACAGCCGUAAUCGGUACUCCUGGCGUUCCUCCAACAGAGGAUUGAGCAUCA
B4: chr5:73697939:73697940:+_ENSMUSG00000029152_ENSMUST00000031038|mus_mus|FALSE|FALSE (ssRNA)
RNA: GGGAGUUCUACAGUCCGACGAUCUCCUUGGGCAAUAUGGUCAGUAAUACCAGUGGGAGUGGACUCGUUCAUAGAAGCACUAAAUGGAAUUGGCUCAUAACGAGGAAGCGCCUCCUUUUCUAUGUUGUCUGCUGCUGGAGAUGUCAACAGAGGAUUGAGCAUCA
B5: chr1:60041781:60041782:+_ENSMUSG00000041040_ENSMUST00000036540|mus_hu|mus_mus_mus_hu_False|78_88 (ssRNA)
RNA: GGGAGUUCUACAGUCCGACGAUCAAGUUUACAAUAGUAAAGUAAAUCAAAUUUAGUAAUGGCAAGUUUUAUUUUCCUUCACAAAAGAAAAUCUUUAUAACCCAGUCCUAGUCUUGGACAUAGUGAAAGCUAUAAAUUCUGACUCAACAGAGGAUUGAGCAUCA
B6: chr1:21268724:21268725:-_ENSG00000075151_ENST00000400422|hu_mus|FALSE|FALSE (ssRNA)
RNA: GGGAGUUCUACAGUCCGACGAUCGGCAAGUGGAGGAAGGCUGGUGGGUGAUGAAGUCCGAGGAGGCUCUGGGGUGGGCUCUCCUGCAGCAGUCUCAGGCAUCUGGCCUGCUUGCUCUUUCUUCUCCCCACUGAGUACGAGCCUCAACAGAGGAUUGAGCAUCA
B7: chr19:8913615:8913616:-_ENSMUSG00000071658_ENSMUST00000096259|mus_hu|mus_mus_mus_hu_False|28_88 (ssRNA)
RNA: GGGAGUUCUACAGUCCGACGAUCAGGGUACCAAAACCUUCUGCCUGAGAUAGGUGCCCCACCCAGUAGGGAGUUGCAGCUGAAAGUAUCUGAUGCAGAAGCAGUGAAUGCAGAGAAGGAGGCCCCUGGGGAGGGCCAGGCCAGCAACAGAGGAUUGAGCAUCA
B8: chr14:78183846:78183847:+_ENSG00000119705_ENST00000557342|hu_hu|hu_hu_hu_mus_False|68_98 (ssRNA)
RNA: GGGAGUUCUACAGUCCGACGAUCUCUCAGAAAUCUUUCUUUCUUUUAUGUUUGAGCUCCGUGCAAAAGUUUUGGCCUUUGAGCUUGAACGUGGAUCUAUGGGAGGGAAAGCACUGUCAGAAAAGGUAAUUUUUUUUUUAAAGACAACAGAGGAUUGAGCAUCA
B9: chr2:202488911:202488912:-_ENSG00000155755_ENST00000286196|hu_mus|hu_hu_hu_mus_False|68_98 (ssRNA)
RNA: GGGAGUUCUACAGUCCGACGAUCAUUGAAACAUUUUCAUAAUAUUGCAGUAGCAUUUCAGCAUUAUUAAUCAAAAACUCAAUUGUAAAUACAUGUAUCUUAUAAAAAUACACUUAAAAACACGAGUGGGGAGCGCAGGCGCCACAACAGAGGAUUGAGCAUCA
B10: 55347292_55347412_1824_3pUTR_ENSMUSG00000021488_ENSMUST00000099490|mouse|control|control (ssRNA)
RNA: GGGAGUUCUACAGUCCGACGAUCUGAUAAGGAAUCGCAAUCUGGAGUCUCAAAGUCUGUCUUAGCAGUGUUCUGUACACUGGAAGAAAAGAGGAAACUUCCUGGUGCAGUGCUAGACCCUGUGAGGCUGUUUGCUAUCCUGGACAACAGAGGAUUGAGCAUCA
B11: chr4:25749455:25749456:-_ENSG00000091490_ENST00000264868|hu_hu|hu_hu_hu_mus_False|88_108 (ssRNA)
RNA: GGGAGUUCUACAGUCCGACGAUCGCAAGCACUAGGAUAGAAAAAUCAUUCAAGGAGAAAAAUGUAAACCAAUGUACAAUGUUAUCGCCUUCCCUGUGUGUGGAGUGUUUGUCUCAAGGCUCCUUCUAGCUGCUGGAUUUGGGACAACAGAGGAUUGAGCAUCA
B12: 42177873_42177993_4935_3pUTR_ENSMUSG00000061080_ENSMUST00000099761|mouse|control|control (ssRNA)
RNA: GGGAGUUCUACAGUCCGACGAUCGAGAGGACCCUGUGACUGUGGGCUGAGAAGAAAGGACUUAAAAAGCAGUUUCACGCUGAGGAAUUUAGUUUCUGUAGGCAGAGGAGGUAAAGUCCAUCUUUGGAGGAGAAACAUACUUUUCAACAGAGGAUUGAGCAUCA
B13: chr1:58468927:58468928:-_ENSMUSG00000026034_ENSMUST00000148330|mus_mus|mus_mus_mus_hu_False|58_98 (ssRNA)
RNA: GGGAGUUCUACAGUCCGACGAUCAAUUACUGAAAAAUGAAAGAUGUACCUUAGCUAUGUACUUAAUGAACCAAAUUAUCUAAAAAAAAUAAACAUGGCAAUAUAAAAAUGUUAAGAAUUUACAAAGCUGUACAAAAUAACUUACAACAGAGGAUUGAGCAUCA
B14: 47181375_47181840_654_ncRNA_ENSMUSG00000021377_ENSMUST00000138401|mouse|control|control (ssRNA)
RNA: GGGAGUUCUACAGUCCGACGAUCAUUCUCUUUGCUGGUAUAAAAUCAGAUCUUCAAAUCUGAGAACAAGCCAUCUGUCCGCUUCUCAAGAAAUUAGCUCUUUUACAGUUGUUUUAAUGAAAUCUUUCCUCUCAGUCAAAUCAUCAACAGAGGAUUGAGCAUCA
B15: chr8:95500983:95500984:-_ENSG00000164944_ENST00000437199|hu_hu|hu_hu_hu_mus_True|1_108 (ssRNA)
RNA: GGGAGUUCUACAGUCCGACGAUCAGAAGGAUUUUUACGAGUAAAGGACCGUACAUGACGGCCUCUACCACUGCCUCCACUAACAAACUUUCCUCUCGAGCCUCCACUGCCGCUAUUUGUACUAGCCCAGGACGGUCCCAAGUCCAACAGAGGAUUGAGCAUCA
B16: chr18:47247233:47247234:+_ENSMUSG00000042705_ENSMUST00000049388|mus_hu|FALSE|FALSE (ssRNA)
RNA: GGGAGUUCUACAGUCCGACGAUCUUGUAUAUGGCUAUUUUCUUAAUUUUAUUCAUGUAAUUACCAAAGCUCUGUAUUCUACUAAGGUACACAUCUUAUCUUGUAUCCAUGGACGCUCCUUGAUACAUUAUGGUAUCAUCCAGCCAACAGAGGAUUGAGCAUCA
B17: 88343747_88343867_74_5pUTR_ENSG00000170502_ENST00000302174|human|control|control (ssRNA)
RNA: GGGAGUUCUACAGUCCGACGAUCAGUCCACCGCUUUCCCCAGUGCAUCGAGAAAAAUCCAGACCAGCACGUGACGCCGAAGCCUCCAGCGCCAGCUGCCUGGGGAAACCGCGGCCACGAACCUCGUAACUUUCUCUCUGCGUACAACAGAGGAUUGAGCAUCA
B18: chr9:95013113:95013114:-_ENSG00000196305_ENST00000443024|hu_hu|hu_hu_hu_mus_False|18_108 (ssRNA)
RNA: GGGAGUUCUACAGUCCGACGAUCCUCAGUGAGAAAAGGCGUGUAAGGGGCCAUCAGUCUGCACAGAGAAAGCAGGACACUGAACAGUGUCUCCAGAGCCAUGACACAGUCUUCCACCCCAUUUUCACCCUUUAACCUCCUCCUCAACAGAGGAUUGAGCAUCA
B19: chrX:71549400:71549401:+_ENSMUSG00000019087_ENSMUST00000019231|mus_hu|mus_mus_mus_hu_False|1_28 (ssRNA)
RNA: GGGAGUUCUACAGUCCGACGAUCGCAGUAGGAAGAGGGAAGCUCUUCAGUCCAGUGCGCUGCAGGGUGGGAAAGCAACAACACGGACACCGUCCCACCCUCAACCCUCUCAGGUGUACAGGGUCACACAAUCUGGGAAGUGAUCAACAGAGGAUUGAGCAUCA
B20: chr5:21390796:21390797:-_ENSMUSG00000042453_ENSMUST00000160791|mus_hu|FALSE|FALSE (ssRNA)
RNA: GGGAGUUCUACAGUCCGACGAUCGGUAUUUCAAUUAAUUUUCUGCAGAAUAUAAGUAGCCCCAAAUUCAGCAGCAAAAUAUUACAACAUAACAAGUAAAUACAGUUUCAAUGUGUUGUAUUGUAGAAGAGAAUACAUAAAGGACAACAGAGGAUUGAGCAUCA
B21: chr16:94664741:94664742:+_ENSMUSG00000040785_ENSMUST00000117648|mus_hu|mus_mus_mus_hu_False|38_68 (ssRNA)
RNA: GGGAGUUCUACAGUCCGACGAUCUGGUACUGAUCUUGGUAGCUGAUAUUCAGGAGAAAGGCUGGCCAAAGGUGUGUAUAUGCUGGUGUACUGGGGCAGGCUAGGUAACACGUUUAUGUAUGCUGGCGGUGUCUGGGUGAUAUCCAACAGAGGAUUGAGCAUCA
B22: chr7:54825262:54825263:-_ENSG00000132432_ENST00000352861|hu_hu|hu_hu_hu_mus_False|18_48 (ssRNA)
RNA: GGGAGUUCUACAGUCCGACGAUCCUGCCGGCUGGGCUCCACAAACUGCAUUACCUGAUCCAUGUUUGUUGGAUGGCGGAUUGAGAGUGCCAGGGACCGUAGCUCAGGAGAGAACCGGAUGGAGGCCAACCGGAAGCUGGCAACCAACAGAGGAUUGAGCAUCA

What follows are binders tested against T1, UNK ZnF1-3 (human, UniProt Q9C0B0 31-174) (assay: nsRBNS (natural sequence RNA bind-n-seq); RBNS binding buffer (assumed for nsRBNS): 25 mM Tris pH 7.5, 150 mM KCl, 3 mM MgCl2, 0.01% Triton X-100, 500 ug/ml BSA, 20 U/ml SUPERase-In, 4 C; UNK is unkempt and MSI1 is Musashi-1; names of the RNAs are library labels; protein concentration not given here; high values mean tight binding).
T1 sequence: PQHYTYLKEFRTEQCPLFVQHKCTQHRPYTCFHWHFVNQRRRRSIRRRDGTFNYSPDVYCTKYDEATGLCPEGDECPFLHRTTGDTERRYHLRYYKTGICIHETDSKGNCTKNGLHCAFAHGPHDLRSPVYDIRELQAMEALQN

Row | Binder | binding signal [enrichment R]
1 | B1 | 1.15
2 | B2 | 0.964
3 | B3 | 0.928
4 | B4 | 1.32
5 | B5 | 0.773
6 | B6 | 0.943
7 | B7 | 1.45
8 | B8 | 1.24
9 | B9 | 0.678
10 | B10 | 0.62
11 | B11 | 1.8
12 | B12 | 1.8
13 | B13 | 1.4
14 | B14 | 0.672
15 | B15 | 0.89
16 | B16 | 0.975
17 | B17 | 0.648
18 | B18 | 1.32
19 | B19 | 0.725
20 | B20 | 1.3
21 | B21 | 1.03
22 | B22 | 0.934
